Assay results as given in PubChem BioAssay AID1963872 (Molecular Pharmacology Branch, DTP, NCI, 2024).
Not every entry of the source has a single result; some have several. They are shown here; other results are not. There may be further records. The records of an entry are repeated measurements in other runs, samples, wells, individuals or studies. Additions like (4×) count equal records among those shown.

System: KRAS patient-derived spheroids with HUVEC/MSC, viability
Assay: Anticancer human tumor 519858-162-T-J1-PDC patient-derived colon adenocarcinoma cell line growth inhibition [KRAS2]
Details: for viability, T/C: stronger effect = lower value; for IC50: compound alone
Text: Multicellular complex tumor spheroid response to RAS pathway inhibitors in combination with a targeted agents in patient-derived cell lines with oncogenic KRAS variants from multiple cancer types
A high-throughput screen of multi-cell type tumor spheroids was designed to identify active combinations of targeted small molecules and KRAS pathway inhibitors. Complex spheroids include a stromal component modeled by human endothelial cells (HUVEC) and fibroblasts modeled by human mesenchymal stem cells (MSCs). The concentration ranges selected for each drug and investigational agent were based upon clinically achievable concentrations if the clinical Cmax of the agent was known.
Compounds. The drugs and investigational agents: BI-3406 (NSC825286), BAY-293 (NSC824723), batoprotafib (TNO155; NSC825523), sotorasib (AMG 510; NSC818433), MRTX1257 (NSC819558), elimusertib (BAY 1895344; NSC800525), molibresib (GSK525762; NSC774829), temuterkib (LY3214996; NSC803410), venetoclax (NSC766270), alisertib (NSC759677), olaparib (NSC753686), talazoparib (NSC767125), erdafitinib (NSC781556), ipatasertib (NSC767898), cabozantinib (NSC761068), nintedanib (NSC756659), abemaciclib (NSC768073), docetaxel (NSC628503), trametinib (NSC758246), and sapanisertib (NSC764658) were obtained from the National Cancer Institute (NCI) Developmental Therapeutics Program Chemical Repository. The FDA-approved anticancer drug set is available from the Developmental Therapeutics Program. […] The stock solutions were prepared in dimethyl sulfoxide (DMSO, Sigma-Aldrich, St. Louis, MO, cat. D2650) at 800-fold the tested concentration and stored at -70 degrees C prior to their use. All drugs and investigational agents were tested over a range starting from a high concentration at or near the clinical Cmax and decreasing in half-log increments. If the clinical Cmax for an agent had not been determined, the highest concentration tested was 10 microM.
Cell Culture. All cells were maintained in an incubator at 37 degrees C and 5% CO2 with 95% humidity. The PDC lines were cultured according to standard operating procedures established by the NCI PDMR (https://pdmr.cancer.gov/sops/default.htm). Briefly, all PDCs were thawed and cultured in Matrigel-coated flasks prepared with a working solution of 1X Ham's F-12 nutrient mix, without supplementation (Invitrogen, Waltham, MA, cat. 11765054), 100 U/mL penicillin-streptomycin (Invitrogen, cat. 15140122), and 2.5% Matrigel (Corning Inc., Corning, NY, cat. 354248) for the first three passages. All PDCs were cultured in complete DMEM/F-12 media containing advanced DMEM/F-12 (Invitrogen, cat. 12634028), 4.9% defined fetal bovine serum, heat inactivated (HyClone Laboratories Inc., Logan, UT, cat. SH30070.03HI), 389 ng/mL hydrocortisone (Sigma-Aldrich, cat. H4001), 9.7 ng/mL human EGF recombinant protein (Invitrogen, cat. PHG0313), 23.4 microg/mL adenine (Sigma-Aldrich, cat. A2786), 97.3 U/mL penicillin-streptomycin (Invitrogen, cat. 15140122), 1.9 mM L-glutamine (Invitrogen, cat. 25030081), and 9.7 microM Y-27632 dihydrochloride (Tocris Bioscience, Bristol, United Kingdom, cat. 1254). The PDCs were cultured in complete DMEM/F12 media without 9.7 microM Y-27632 dihydrochloride for at least two passages prior to the screen. The established cell line HOP-62 was cultured in RPMI 1640 medium, HEPES (Invitrogen, cat. 22400105) with 10% defined fetal bovine serum (HyClone Laboratories Inc., cat. SH30070.03) and 2 mM L-glutamine (Invitrogen, cat. 25030081). The pooled donor HUVEC were cultured in endothelial cell growth medium 2 (PromoCell, Heidelberg, Germany, cat. C-22011) and the hMSC were cultured in mesenchymal stem cell growth medium 2 (PromoCell, cat. C-28009). For all experiments, HUVEC and hMSC were used at passages </=5, while the malignant cell lines were used at passages </=15. […]
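Note: compound exposure lasted seven days before readout.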
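Throughout, for viability, T/C: 100% = DMSO vehicle control viability.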

SMILES | viability, T/C (compound alone 0.0316 µM) | viability, T/C (compound alone 0.1 µM) | viability, T/C (compound alone 0.316 µM) | viability, T/C (compound alone 1 µM) | viability, T/C (compound alone 3.16 µM) | viability, T/C (compound alone 10 µM) | IC50 (run of 07/12/2021) | IC50 | viability, T/C (compound alone 0.000316 µM) | viability, T/C (compound alone 0.001 µM) | viability, T/C (compound alone 0.00316 µM) | IC50 (run of 07/26/2021)
O=C(c1cc(Cc2n[nH]c(=O)c3ccccc23)ccc1F)N1CCN(C(=O)C2CC2)CC1 | 85.8, 72.1, 110, 66.3, 93% | 76.9, 91.2, 101, 105, 102% | 84, 89.4, 89.9, 73, 112% | 78.2, 86, 115, 83.5, 76.6% | 80.3, 110, 103, 140, 116% | 89.4, 79, 122, 88.3, 107% |  |  |  |  |  | 
COc1cc2nc(C)nc(NC(C)c3cc(N)cc(C(F)(F)F)c3)c2cc1OC1CCOC1 (configuration not stated) |  | 91.5, 67.3, 111, 79.7, 85.7, 80.2, 79.5, 81.9, 82.4, 84.2, 95.3, 77.1, 117, 76, 86.6, 88.8, 97.6% | 96, 70.9, 95.4, 51.3, 71.6, 81, 81.2, 89.1, 88.7, 61.8, 63.9, 59.6, 90.9, 63.2, 79.9, 77.7, 67.5% | 77.9, 76.6, 79.1, 42.1, 54.4, 71.1, 73.2, 82.2, 58.5, 71.2, 92.1, 71.7, 70.6, 65.2, 89.1, 65.6, 62.5% | 94.2, 68.2, 61.2, 51.1, 49, 70.8, 63, 82.8, 71.8, 66.3, 79.1, 49.8, 66.9, 53.2, 62.2, 56.6, 85.5% | 82.5, 79, 72.6, 48.9, 61.5, 73.9, 70, 84.4, 97, 69.4, 46.8, 51, 68.5, 30.5, 68.6, 63.4, 67.7% | > 10 µM and 393 nM |  |  |  |  | 
COC(=O)c1ccc2c(C(=Nc3ccc(N(C)C(=O)CN4CCN(C)CC4)cc3)c3ccccc3)c(O)[nH]c2c1 |  | 71.5, 94.4, 91.2, 101, 104% | 89.3, 83.9, 98.9, 62, 78.4% | 79.8, 89.4, 111, 78.6, 105% | 73.1, 113, 99.3, 85, 97.6% | 69.6, 84.2, 77, 60.4, 98.4% |  |  |  |  |  | 
CC1(C)CCC(CN2CCN(c3ccc(C(=O)NS(=O)(=O)c4ccc(NCC5CCOCC5)c([N+](=O)[O-])c4)c(Oc4cnc5[nH]ccc5c4)c3)CC2)=C(c2ccc(Cl)cc2)C1 | 117, 96.7, 81.5, 80.9, 83.2% | 69.2, 81.9, 85.9, 95.7, 87.4% | 104, 78.3, 93.5, 124, 81.1% | 106, 87.8, 93.1, 118, 71.3% |  | 46.7, 79, 81, 89, 75.4% |  |  |  |  |  | 
CC(=O)Nc1cccc(-n2c(=O)n(C3CC3)c(=O)c3c(Nc4ccc(I)cc4F)n(C)c(=O)c(C)c32)c1 |  |  |  |  |  |  |  | 6.97, 2.13, 2.49, 2.4, 4.16 nM | 91.4, 99.5, 76.6, 65.7, 64% | 89.4, 62.2, 64, 52.2, 56.8% | 76.8, 42.7, 50.6, 60.8, 65.6% | 
CC1OCC2(CCN(c3cnc(Sc4ccnc(N)c4Cl)c(N)n3)CC2)C1N (configuration not stated) |  | 76.7, 105 (2×), 89.4, 73.2, 82.2, 85.5, 72.7, 97.4, 79.5, 78.4, 75.6, 84.2, 87.7, 61, 80.1, 83.3, 85.6% (2×) | 56.8, 52.9, 78.4, 67, 97.5, 69.1, 61, 105, 88.6, 80.1, 58.5, 59.2, 76.3, 77.4, 66.4, 65, 82.4, 79.5, 59.5% | 68.8, 96.3, 96.9, 68.2, 65.4 (2×), 78.7, 89.3, 65.5, 75, 70.4, 63.5 (2×), 71.2, 84, 79.3, 70.1, 98.3, 60.5% | 58, 58.4, 56.2 (2×), 73.4, 61.9, 53.7, 56.9, 63.8, 80.7, 47.4, 49.7, 64.6, 66.3, 57.3, 39.2, 47.9, 58.3, 72.8, 51.9% | 65.1, 82.3, 69, 63.2, 61.8, 63.7, 50, 56.8, 58.5, 64.4, 80.5, 70.2, 73.7, 57.9, 47.5, 75.6, 35.9, 77.2, 44.9, 62% |  |  |  |  |  | 2.19 µM, > 10 µM, 4.74 µM, 3.51 µM, 3.13 µM
C=CC(=O)N1CCN(c2nc(=O)n(-c3c(C)ccnc3C(C)C)c3nc(-c4c(O)cccc4F)c(F)cc23)C(C)C1 (configuration not stated) |  | 86.7, 89.3, 73.8, 75.1, 105, 90.8, 95.2, 93.5, 81.1, 70.3, 104, 80, 97, 99, 97.2, 96.3, 101% | 65.5, 84.9, 86.2, 76.7, 93.5, 77.6, 84.5, 96.3, 93.3, 88, 88.4, 69.8, 112, 89.3, 104, 95.5, 87% | 82.6, 73.5, 94, 95, 104, 76.3, 94.2, 83.8, 77, 79.5, 90.1, 80, 82.4, 92.9, 85, 98.6, 92.3% | 84.9, 111, 85.8, 78.3, 80.5 (2×), 77.1, 78, 98.5, 89.2, 85.2, 92.9, 71.9, 102, 105, 62.5, 74.7% | 71.2, 96.7, 93, 125, 83.3, 83 (2×), 102, 89.1, 79.8, 87.2, 76, 91.8, 86.3, 44.7, 61.6, 80.7% |  |  |  |  |  | 
